Screen size: about 110,000 compounds; about 230 (0.21%) showed an effect of 50% or more. The list shows a part of the results.
These compounds were tested against DPAP1 (Plasmodium falciparum, UniProt Q8IIJ9) (assay: primary screen, percent inhibition; read by cleavage of a fluorogenic dipeptide substrate; higher = more effect of the substance).
Parameters: species or system P. falciparum D10 trophozoite lysates; single well
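Note: 30 min substrate incubation versus DMSO and 10 µM JCP410 controls.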

Sequence of DPAP1 (Q8IIJ9 whole entry, looked up): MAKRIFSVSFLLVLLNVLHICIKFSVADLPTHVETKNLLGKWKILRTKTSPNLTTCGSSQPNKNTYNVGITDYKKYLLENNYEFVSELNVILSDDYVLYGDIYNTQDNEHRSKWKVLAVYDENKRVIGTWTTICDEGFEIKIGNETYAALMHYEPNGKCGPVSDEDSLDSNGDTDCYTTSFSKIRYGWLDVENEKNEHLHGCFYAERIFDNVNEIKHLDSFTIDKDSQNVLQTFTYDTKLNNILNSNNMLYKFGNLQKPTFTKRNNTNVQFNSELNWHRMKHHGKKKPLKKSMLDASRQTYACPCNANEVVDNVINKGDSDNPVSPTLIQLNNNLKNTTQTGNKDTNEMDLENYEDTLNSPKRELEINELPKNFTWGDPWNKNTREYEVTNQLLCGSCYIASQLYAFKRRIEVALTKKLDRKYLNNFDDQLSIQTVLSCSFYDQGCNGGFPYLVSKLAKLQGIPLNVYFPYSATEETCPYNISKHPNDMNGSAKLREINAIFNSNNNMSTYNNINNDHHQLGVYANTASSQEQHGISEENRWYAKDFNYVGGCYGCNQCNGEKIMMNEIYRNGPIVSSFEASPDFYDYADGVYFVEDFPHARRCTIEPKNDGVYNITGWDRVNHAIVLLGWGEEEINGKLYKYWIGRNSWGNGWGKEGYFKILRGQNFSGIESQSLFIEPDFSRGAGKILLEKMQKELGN

Compound | % Inhibition @ 10 uM [%]
Cc1nn(-c2ccc(F)cc2)c(-n2cccc2)c1C(=O)N1CCC2(CC1)OCCO2 | -4.08
O=C(O)c1ccc2n[se]nc2c1 | 0.146
Cc1cccc(N2C(=O)NC(=O)/C(=C/Nc3ccc(C(=O)N4CCOCC4)cc3)C2=O)c1 | -0.661
CCCCNC(=O)c1cc(OC)cc(OC)c1 | -8.36
Cc1sc2ccc3sccc3c2[n+]1C | 0.884
COc1cc(C(=O)Nc2ccc(Br)c(Cl)c2)cc(OC)c1OC | 1.28
O=C(Cc1csc(-c2ccccc2)n1)N1CCOCC1 | 7.99
Cc1ccc(S(=O)(=O)N(CC(=O)NCc2ccco2)Cc2ccc(Cl)cc2Cl)cc1 | -3.26
CCN(CC)C(=O)c1cc(-c2ccc(OC)cc2)on1 | -4.07
COc1cccc(C(=O)Nc2noc3ccccc23)c1 | -1.11
CC(=O)c1ccc(NS(=O)(=O)c2ccc(Oc3ccc([N+](=O)[O-])cc3)cc2)cc1 | -1.77
CN1CCc2nc(SCc3cccc(Cl)c3)c(C#N)cc2C1 | 0.131
CC(C)C[C@H](NC(=O)c1ccc(Cl)c(Br)c1)C(=O)NCC#N | 5.86
Cc1c(C(=O)NCCCN2CCCC2=O)oc2ccc3c(c12)C(=O)CC1(CCC(C)CC1)O3 (stereo not shown) | -1.08
Cc1ccc2nc(NC(=O)C3C4C=CC(C4)C3C(=O)O)sc2c1 (stereo not shown) | 2.79
C=CCSC1=C(C#N)C(c2cccc(OC)c2)CC(=O)N1 (stereo not shown) | -1.64
CC1CC(C)CN(C(=O)CCCNS(=O)(=O)c2cccc3nsnc23)C1 (stereo not shown) | 2
Cc1cccc(NC(=O)C(Cc2ccccc2)NS(=O)(=O)c2cccc3nsnc23)n1 (stereo not shown) | 0.317
CCCCC(=O)Nc1sc2c(c1C#N)CCCCC2 | 3.65
CC1CC(C)CN(c2oc(-c3ccc(F)cc3)nc2C#N)C1 (stereo not shown) | 0.315
COCCNC(=O)c1c(C)nn(-c2ccc(F)cc2)c1-n1cccc1 | -4.08
Cc1ccc2c(c1)-c1onc(C(=O)NCCC3=CCCCC3)c1CO2 | -3.17

Compound | % Inhibition @ 10 uM [%]
CCOc1cccc(C(=O)Nc2nnc(C34CC5CC(CC(C5)C3)C4)s2)c1 | -0.142
N#Cc1c(N)nc2c(c1-c1ccccc1Cl)CCCCC2 | 4.51
O=C(NCC1COc2ccccc2O1)C1COc2ccccc2O1 (stereo not shown) | -1.32
COc1ccc(CC(C)NCc2ccc(Cl)c(Cl)c2)cc1 (stereo not shown) | 0.472
O=C(CCC(=O)N1Cc2ccccc2Oc2ncccc21)NCc1ccccc1F | 1.63
Clc1ccc(-c2csc(Nc3ccc4c(c3)OCO4)n2)cc1 | 2
Cc1ccccc1CN1CCCC(CO)C1 (stereo not shown) | -0.833
Oc1ccc(Cl)cc1-c1cc(-c2ccc(Br)cc2)[nH]n1 | -0.233
Cc1ccc(Cn2nnc3c(=O)n(CC(=O)NCc4ccc(F)cc4)cnc32)cc1 | -0.431
CCOC(=O)c1sc(N2N=C(C)/C(=C\C=C\c3ccco3)C2=O)nc1C | -6.44
Cc1ccc(Sc2c(C(=O)NCCN(C)C)[nH]c3ccccc23)cc1 | -4.09
CN(Cc1ccccc1)C(=O)CN(c1ccc(F)cc1)S(=O)(=O)c1ccccc1 | -7.01
O=C1ON=C(c2ccccc2)/C1=C\c1ccc(OCc2ccccc2)cc1 | -2.14
Cc1ccc(NCN2C(=O)C3CC=CCC3C2=O)cc1Cl (stereo not shown) | 2.27
CC(NS(=O)(=O)c1ccc(OCC(=O)NC2CC2)cc1)c1ccccc1 (stereo not shown) | -2.58
Cc1ccc(C(=O)Nc2nonc2NC(=O)c2ccc(C)cc2)cc1 | 6.37
Cc1ccc(N2C(=O)C(Cl)=C(NCCO)C2=O)c(C)c1 | -2.78
Cc1cc(=O)oc2c(C)c3oc4c(c3cc12)CCCC4 | 2.21
O=C(/C=C\c1cccs1)CC(O)(c1ccccc1)C(F)(F)F (stereo not shown) | 1.88
CCn1c2ccccc2c2cc(CNc3cccc(OC)c3)ccc21 | -1.82
CCC(C)NC(=O)C1CCN(C(=O)C2CCN(S(=O)(=O)c3ccc(C)cc3)CC2)CC1 (stereo not shown) | 3.66
COc1ccc(OC)c(CCNC(=O)c2ccc(CS(=O)Cc3ccc(Cl)cc3)o2)c1 (stereo not shown) | 1.77

Compound | % Inhibition @ 10 uM [%]
CN(Cc1ccccc1)C(=O)c1ccc(C/N=c2/c(N3CCCC3)c(O)c2=O)cc1 | 5.91
CCOc1ccc(-c2nc(SCC(=O)Nc3nccs3)c(-c3ccccc3)[nH]2)cc1 | 1.85
COc1cccc(C2CC(=O)Nc3cc4c(cc32)OCO4)c1OC (stereo not shown) | 0.475
CCCNC(=O)CN(c1ccc(C)cc1)S(=O)(=O)c1ccc(F)cc1 | -1.38
CC1CCN(c2c(NCc3ccc(C(=O)NCC4COc5ccccc5O4)cc3)c(=O)c2=O)CC1 (stereo not shown) | 3.07
COC(=O)c1ccc(-c2ccc(/C=C3\C(=O)N=C(N)N3C)o2)cc1 | -3.21
CC1(C)CC(=O)c2cc(C(N)=O)c(=O)n(-c3ccccc3)c2C1 | 0.219
Cc1nc2c(c(C)nn2C)c(C)c1CCC(=O)NCc1ccccc1 | 2.37
COc1cccc(CN(C(=O)COc2cc(C)c(Cl)c(C)c2)C2CCS(=O)(=O)C2)c1 (stereo not shown) | 2.02
Cc1[nH]c(SCC(=O)Nc2sc3c(c2C#N)CCCC3)nc1Cc1ccc(O)cc1 | -0.92
O=C(Nc1ccccc1F)c1ccc([N+](=O)[O-])cc1 | 3.53
CCN(CC)S(=O)(=O)c1ccc(S(=O)(=O)c2ccc(S(=O)(=O)N(CC)CC)cc2)cc1 | -1.43
COc1ccccc1OCCCC(=O)Nc1ccc(C)c(C)c1 | -2.09
O=C1CC(C(=O)Nc2ccc(Cl)cc2Cl)C(c2ccccc2)O1 (stereo not shown) | -0.999
CCOC(=O)N1CCC(NC(=O)CN(C)S(=O)(=O)c2cccc3nsnc23)CC1 | 1.79
CC(CCc1ccccc1)N[C@H]1CCCCNC1=O (stereo partly shown) | 0.217
Cc1cc(/C=C(\C#N)c2nc3ccccc3[nH]2)c(C)n1-c1ccc(F)cc1 | 2.18
Fc1ccc(CN2CCN(c3ccccc3F)CC2)cc1Br | 3.25
CCOC(=O)NC(C)C1CC2CCC1C2 (stereo not shown) | -2.98
Clc1ccc(OC2=C(c3ccccc3)N3CCN=C3S2)cc1 | 1.38
